{"source": "the supplement of paper PMC4894684", "note": "Structures can show the parent of a compound that is named as a salt. ± gives the standard deviation of the averaged measurements. In all, about 1,000 compounds went through this assay and about 15 (2%) showed an effect of 50% or more. Some of the results follow.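 Further: confluent HFF monolayers, run in parallel with the Toxoplasma growth screen as a host toxicity counterscreen.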", "data": [{"test_system": "HFF", "experiment": "uninfected host cell viability relative to vehicle control; higher = less host cell toxicity", "details": "5 µM; 72 h; oxygen 21 %", "units": {"uninfected host cell viability": "%"}, "values": [{"compound": "CC(C)C(=O)c1c(C(C)C)nn2ccccc12", "note": "[Ibudilast]", "uninfected host cell viability": "99.2 ± 1.4"}, {"compound": "Cc1ccc(C(=O)Cn2c3c(sc2=N)CCCC3)cc1", "note": "[Pifithrin- α hydrobromide]", "uninfected host cell viability": "88.7 ± 2"}, {"compound": "Nc1nc(NCC2CCC(CNS(=O)(=O)c3cccc4ccccc34)CC2)nc2ccccc12", "note": "(stereo not drawn)", "uninfected host cell viability": "58.6 ± 2.7"}, {"compound": "Cn1nnc2c(C(N)=O)ncn2c1=O", "note": "[Temozolomide]", "uninfected host cell viability": "88.2 ± 1.5"}, {"compound": "C=C1C(=O)O[C@H]2[C@H]1CC/C(C)=C/CC[C@@]1(C)O[C@@H]21", "note": "[Parthenolide]", "uninfected host cell viability": "111 ± 3.5"}, {"compound": "O=C1NC(c2cccc([N+](=O)[O-])c2)=CCN1c1ccccc1O", "note": "[Icilin]", "uninfected host cell viability": "90 ± 2.6"}, {"compound": "CCCN(CC1CC1)c1nc(C)nc(Nc2c(Cl)cc(Cl)cc2Cl)c1Cl", "uninfected host cell viability": "91.8 ± 3.6"}, {"compound": "CCCNC(=O)N1N=C(c2ccc(N)cc2)c2cc3c(cc2C1C)OCO3", "note": "(stereo not drawn)", "uninfected host cell viability": "88.9 ± 3.7"}, {"compound": "CC(C(O)c1ccc(O)cc1)N1CCC(Cc2ccccc2)CC1", "note": "(stereo not drawn) [Ifenprodil hemitartrate]", "uninfected host cell viability": "85.74 ± 0.15"}, {"compound": "c1ccc2cc(C3=NCCN3)ncc2c1", "note": "[BU 226 hydrochloride]", "uninfected host cell viability": "86.34 ± 0.45"}, {"compound": "Cc1ccc(OCC(O)C(C)NC(C)C)c2c1CCC2", "note": "(stereo not drawn) [ICI-118,551 hydrochloride]", "uninfected host cell viability": "82.7 ± 2.3"}, {"compound": "CCCn1c(=O)c(C)cn2nc(N)nc12", "uninfected host cell viability": "84 ± 2.8"}, {"compound": "CCN(c1ccccc1)c1cc(=NC)n(C)c(C)n1", "uninfected host cell viability": "92.2 ± 1.3"}, {"compound": "CN1CCN2c3ncccc3Cc3ccccc3C2C1", "note": "(stereo not drawn) [Mirtazepine]", "uninfected host cell viability": "85.7 ± 4"}, {"compound": "CCCOc1ccccc1-c1nc2[nH]nnc2c(=O)[nH]1", "note": "[Zaprinast]", "uninfected host cell viability": "85.7 ± 3.4"}, {"compound": "COc1cc(SC)ccc1C(=O)N1CCC(Cc2ccccc2)CC1", "uninfected host cell viability": "97.9 ± 1.6"}, {"compound": "CC#C[C@]1(O)CC[C@H]2[C@@H]3CCC4=CC(=O)CCC4=C3[C@@H](c3ccc(N(C)C)cc3)C[C@@]21C", "note": "[Mifepristone]", "uninfected host cell viability": "98.4 ± 3.2"}, {"compound": "COc1ccc(Cl)cc1C(=O)NCCc1ccc(S(=O)(=O)NC(=O)NC2CCCCC2)cc1", "note": "[Glibenclamide]", "uninfected host cell viability": "88.3 ± 5.3"}, {"compound": "CCN(CC)CCOCCOC(=O)C1(c2ccccc2)CCCC1", "note": "[Carbetapentane citrate]", "uninfected host cell viability": "89.7 ± 1.5"}, {"compound": "O=c1nc2ccccc2c2n1CC(CN1CCN(c3ccccc3)CC1)N2", "note": "(stereo not drawn)", "uninfected host cell viability": "87.5 ± 1.9"}, {"compound": "COc1cc(NC(=O)c2ccccn2)ccc1Cl", "uninfected host cell viability": "95.9 ± 2.8"}, {"compound": "O=c1c(O)c(-c2ccc(O)cc2)oc2cc(O)cc(O)c12", "note": "[Kaempferol]", "uninfected host cell viability": "83.5 ± 1.3"}, {"compound": "N#C/C(=C(/N)Sc1ccc(N)cc1)c1ccccc1C(F)(F)F", "uninfected host cell viability": "87.02 ± 0.63"}, {"compound": "COc1cc(OC)c(NC(=O)Nc2cc(C)on2)cc1Cl", "uninfected host cell viability": "82.4 ± 2.5"}, {"compound": "Nc1nc2c(cnn2CCc2ccccc2)c2nc(-c3ccco3)nn12", "uninfected host cell viability": "96.8 ± 2.3"}, {"compound": "COCCNC(=O)COc1ccc(OCCNC[C@H](O)COc2ccccc2)cc1", "note": "[ZD 7114 hydrochloride]", "uninfected host cell viability": "83.8 ± 2.3"}, {"compound": "CN[C@H]1CC[C@@H](c2ccc(Cl)c(Cl)c2)c2ccccc21", "note": "[Sertraline hydrochloride]", "uninfected host cell viability": "90.3 ± 2.9"}, {"compound": "CCOC(=O)C1=C(C)NC(=S)NC1c1cccc(O)c1", "note": "(stereo not drawn) [Monastrol]", "uninfected host cell viability": "84.4 ± 1.9"}, {"compound": "CC(C)[N+]1(C)[C@@H]2CC[C@H]1C[C@@H](OC(=O)C(CO)c1ccccc1)C2", "note": "(stereo partly drawn) [Ipratropium bromide]", "uninfected host cell viability": "96.6 ± 2.7"}, {"compound": "c1cc(CN2CCCCC2)cc(OCCCNc2nc3ccccc3s2)c1", "note": "[Zolantidine dimaleate]", "uninfected host cell viability": "81.6 ± 1.5"}, {"compound": "CCOC(=O)[C@@H](C)Oc1cccc2c(=O)n(CC(=O)Nc3ccc4c(c3)OCCO4)ccc12", "uninfected host cell viability": "84.7 ± 0.99"}, {"compound": "CC[C@H](CO)Nc1nc(Nc2cccc(-c3ccccn3)c2)c2ncn(C(C)C)c2n1", "note": "[(R)-DRF053 dihydrochloride]", "uninfected host cell viability": "84.1 ± 1.9"}, {"compound": "Cc1ccccc1N1CCN(S(=O)(=O)C[C@]23CC[C@H](C[C@@H]2NC(=O)[C@@H](N)CCS(C)(=O)=O)C3(C)C)CC1", "note": "[L-368,899 hydrochloride]", "uninfected host cell viability": "87.07 ± 0.83"}, {"compound": "CCOC(=O)C1=C(N)Oc2ccc(Br)cc2C1C(C#N)C(=O)OCC", "note": "(stereo not drawn)", "uninfected host cell viability": "89.6 ± 2.8"}, {"compound": "CC(C)c1ccccc1S(=O)(=O)c1cc(N)c2ncccc2c1[N+](=O)[O-]", "uninfected host cell viability": "73.2 ± 0.84"}, {"compound": "Clc1ccc2nsnc2c1NC1=NCCN1", "note": "[Tizanidine hydrochloride]", "uninfected host cell viability": "89.9 ± 4.1"}, {"compound": "COC1CCC(C(=O)c2ccc3nc4c(cc3c2)CCCO4)CC1", "note": "(stereo not drawn)", "uninfected host cell viability": "88.7 ± 4.6"}, {"compound": "COc1cc(CNC(=O)CCCC/C=C/C(C)C)ccc1O", "note": "[(E)-Capsaicin]", "uninfected host cell viability": "88.13 ± 0.59"}, {"compound": "NC(=O)N/N=C/c1ccc(Oc2ccc(F)cc2)cc1", "uninfected host cell viability": "87.6 ± 3.6"}, {"compound": "C[C@]12CC[C@@H]3c4ccc(O)cc4C[C@@H](CCCCCCCCC[S+]([O-])CCCC(F)(F)C(F)(F)F)[C@H]3[C@@H]1CC[C@@H]2O", "note": "(stereo partly drawn)", "uninfected host cell viability": "93 ± 4.9"}, {"compound": "C1CCC(N=C(NC23CC4CC(CC(C4)C2)C3)N2CCOCC2)CC1", "uninfected host cell viability": "86.31 ± 0.27"}, {"compound": "O=C(/C=C/c1ccc(O)c(O)c1)O[C@H](Cc1ccc(O)c(O)c1)C(=O)O", "note": "[Rosmarinic acid]", "uninfected host cell viability": "80.3 ± 1"}, {"compound": "CCC1(c2ccccc2)C(=O)NCNC1=O", "note": "[Primidone]", "uninfected host cell viability": "86.1 ± 0.94"}, {"compound": "COc1ccc(Cl)cc1NC(=O)Nc1cc(C)nc2ccccc12", "uninfected host cell viability": "70.73 ± 0.28"}, {"compound": "CC1OC2(CS1)CN1CCC2CC1", "note": "(stereo not drawn) [Cevimeline hydrochloride]", "uninfected host cell viability": "102 ± 4.3"}, {"compound": "NC[C@@H]1O[C@H](C23CC4CC(CC(C4)C2)C3)Cc2c1ccc(O)c2O", "uninfected host cell viability": "85.3 ± 7.3"}, {"compound": "CC1CCN(CC[C@H]2CCCN2S(=O)(=O)c2cccc(O)c2)CC1", "uninfected host cell viability": "88.52 ± 0.33"}, {"compound": "Oc1cc2c(cc1O)C(c1ccccc1)CNCC2", "note": "(stereo not drawn)", "uninfected host cell viability": "82 ± 1.6"}, {"compound": "N#C/C(=C\\c1ccc(O)c(O)c1)C(=O)NCCCCc1ccccc1", "uninfected host cell viability": "84.5 ± 2.7"}, {"compound": "CN1CCN(CCc2ccc(Cl)c(Cl)c2)CC1", "note": "[BD 1063 dihydrochloride]", "uninfected host cell viability": "101 ± 2.2"}, {"compound": "Clc1cccc(Cl)c1NC1=NCCN1", "note": "[Clonidine hydrochloride]", "uninfected host cell viability": "86.2 ± 4"}, {"compound": "CCN(CC)c1ccc(/C=N/NC(=O)c2ccc(O)cc2)cc1", "uninfected host cell viability": "86.7 ± 5.1"}, {"compound": "O=C(O)CCc1ccc(NCc2cccc(Oc3ccccc3)c2)cc1", "uninfected host cell viability": "89.2 ± 1.4"}, {"compound": "CC(=O)O[C@@H]1C[C@H]2C(C)(C)C(=O)C=C[C@]2(C)[C@H]2CC[C@@]3(C)[C@H](c4ccoc4)OC(=O)[C@H]4O[C@]43[C@@]21C", "note": "[Gedunin]", "uninfected host cell viability": "107.2 ± 0.78"}, {"compound": "O=C1NC(=O)c2cc(Nc3ccccc3)c(Nc3ccccc3)cc21", "uninfected host cell viability": "93.23 ± 0.27"}, {"compound": "CN(CCCN1c2ccccc2CCc2ccccc21)CC(=O)c1ccc(Cl)cc1", "note": "[Lofepramine]", "uninfected host cell viability": "89.6 ± 1.2"}, {"compound": "Cc1noc(NS(=O)(=O)c2cccc3c(N(C)C)cccc23)c1C", "uninfected host cell viability": "98.4 ± 1.2"}, {"compound": "O=C(c1ccc(F)cc1)C1CCN(CCn2c(=O)[nH]c3ccccc3c2=O)CC1", "note": "[Ketanserin tartrate]", "uninfected host cell viability": "83.4 ± 6.3"}]}]}
